Laboratory results from ChEMBL document CHEMBL4888484, “Replenishing the malaria drug discovery pipeline: Screening and hit evaluation of the MMV Hit Generation Library 1 (HGL1) against asexual blood stage Plasmodium falciparum ,using a nano luciferase reporter read-out” (2022).
Among all 150,000 compounds or so, about 540 (0.36%) showed an effect of 50% or more. The list shows a part of the results.

Each compound was assayed on Plasmodium falciparum (assay: Primary screen in NF54 nanoGlo assay, in single point, at 2uM, 72h; a lower Z score goes with more inhibition). Conditions: timepoint 72 hour.
Type: functional, Erythrocyte

| SMILES | % Inhibition [%] | Z score |
| --- | --- | --- |
| CC1CCC2(CC1)N=C(c1ccc(Cl)c(Cl)c1)C(=O)N2 (stereo not drawn) | 36 | -1.09 |
| Cc1[nH]nc(C(=O)N[C@H]2CC(C)(C)c3ccccc32)c1C | 6 | -0.97 |
| CCC[C@H]1CN(Cc2ccco2)C[C@@H]1NC(=O)C1(C#N)CCOCC1 | -5 | 0.87 |
| CCCN1C(=O)N[C@@H](Cc2ncnn2-c2ccc3nc(C)sc3c2)C1=O | -5 | 0.61 |
| CCOc1ccc(CN2C[C@H](CO)[C@H](CN3C[C@@H](C)O[C@@H](C)C3)C2)cc1 | 11 | -1.35 |
| O=C(NC1CC1)N1CCC[C@H]1c1nc2ccccc2s1 | -5 | 0.73 |
| CCC1CCC(N2CCC[C@H](C(N)=O)C2)CC1 (stereo partly drawn) | -3 | 0.4 |
| COCCC(CNC(C)c1nccnc1C)NC(=O)OC(C)(C)C (stereo not drawn) | -12 | 1.51 |
| O=C(O)Cn1ccc(NC(=O)CCc2ccc(F)c3c2CCCC3)n1 | 7 | -1.1 |
| C[C@H](NC(=O)N1CCC(C)(C#N)CC1)c1ccc(F)c2ccccc12 | -10 | 1.48 |
| CCN(CC)CCN(CCC(F)(F)F)C(=O)c1ccnc(CO)c1 | -5 | 0.74 |
| CC1(C)COc2c(C(=O)NC3CCCC3(C)CO)cccc21 (stereo not drawn) | 15 | -1.88 |
| O=C1C[C@@H](c2ccccc2)N(C(=O)c2cc(F)ccc2O)CCN1 | 36 | -3.64 |
| CC(=O)Nc1cccc(-c2c(C)n(C)c(=O)n(C)c2=O)c1 | -11 | 1.5 |
| O=C(NCc1ccc2nonc2c1)N[C@H](c1cccnc1)C1CC1 | 9 | -1.38 |
| O=C(N[C@H]1CC[C@H](O)CC1)N1CCC(CCc2ccc(F)cc2F)CC1 | 7 | -0.71 |
| NC(=O)CCC1CCN(c2cc(-c3ccccc3F)nc3ccnn23)CC1 | -2 | 0.23 |
| CCN1C[C@H](NS(=O)(=O)c2cnn(CC)c2)C(C)(C)C1 | -9 | 1.66 |
| CCNc1cc(N2CCC(CCC(=O)NCc3cccc(OC)c3)CC2)ncn1 | 26 | -2.95 |
| O=C(CCc1c[nH]c2ccccc12)N[C@@H]1c2ccccc2C2(CCNCC2)[C@H]1O | -3 | 0.61 |
| O=S(=O)(CC[C@H]1CCCO1)N1CCc2c(F)ccc(F)c2C1 | -6 | 0.85 |
| Cc1cc(C)cc(NC(=O)c2nc(-c3cn(Cc4ccc(F)cc4)nn3)no2)c1 | -2 | 0.47 |
| O=C(Cc1csc(NC(=O)c2ccco2)n1)Nc1nnc[nH]1 | 2 | -0.18 |
| CCN1CCCN(C(=O)c2[nH]nc(C3CC3)c2Cl)CC1=O | 6 | -1.11 |
| C[C@@H](NC(=O)NCC1CCOCC1)c1cccc(Cl)c1 | -6 | 0.92 |
| Cc1noc(-c2ccncc2)c1C(=O)N1CC=C(c2ccccc2)CC1 | -15 | 2.16 |
| COC(=O)c1ccc2c(c1)CCCN2Cc1cccc2ccccc12 | 1 | -0.11 |

| SMILES | % Inhibition [%] | Z score |
| --- | --- | --- |
| O=C(NC1CCN(c2ccc3nncn3n2)C1)OC1CCOC1 (stereo not drawn) | -14 | 2.2 |
| CCN(CC)[C@@H](Cn1ccnc1-c1nccn1C)c1ccco1 | -10 | 1.43 |
| CCCCOc1ccc(C2=Nc3cc(Br)ccc3NC(c3ccncc3)=N2)cc1 | 2 | -0.24 |
| Cn1nc(CNC(=O)NC2CCCCC2)c2c1CCOC2 | -2 | 0.47 |
| O=C(NCCCCn1ccnc1)NCC1(c2ccccc2)CC1 | 8 | -1.09 |
| Cc1noc(C)c1C[C@H](C)NS(=O)(=O)CCC(F)(F)Cl | -9 | 0.89 |
| Cc1cnc(C(C)N2CCN(C(C)c3ncc(C)o3)CC(O)C2)o1 (stereo not drawn) | -10 | 1.59 |
| CCN(Cc1cc(Cl)c(OC)cc1OC)[C@H]1COC[C@@H]1O | -2 | 0.27 |
| CCc1noc(-c2csc(C(=O)NC3CCCCCC3)n2)n1 | -10 | 1.57 |
| Cc1c(NC(=O)N2CC3(CCCC3)[C@H]2c2ccccc2)nnn1C | 6 | -0.73 |
| CCCc1nc(C)c(NC(=O)N2C[C@@H](NC(C)=O)[C@H](c3nccn3C)C2)s1 | 2 | -0.32 |
| CCn1cc(CC(=O)N2CCOc3ccc(O)cc3C2)nn1 | 1 | -0.12 |
| O=C(c1ccc(-c2cc(O)c(F)c(F)c2)cc1)N1C[C@@H]2[C@@H]3CC[C@@H](C3)[C@@H]2C1 | -4 | 0.5 |
| C[C@@H](c1ccc(Cl)cc1Cl)N(C)C(=O)c1cn2c(n1)CCCC2 | -14 | 1.81 |
| CCC(=O)Nc1c(C(=O)N2CCC(N3CCCCC3)CC2)oc2ccccc12 | 1 | -0.11 |
| O=C(Cc1cccs1)NC1CCCCCCC1 | -6 | 1.15 |
| CCc1nsc(N(C)Cc2nccn2CC(F)(F)F)n1 | -6 | 0.7 |
| Cc1cnn(CCNCc2nc(C)c(C)o2)c1 | -9 | 1.2 |
| COC(=O)[C@H]1C[C@@H](C(=O)NCc2ccncc2C)[C@@H](c2cccc(F)c2F)N1C | -11 | 1.39 |
| CCN(C(=O)c1ccc(-c2cccc3c(N)ccnc23)cc1)[C@H]1COC[C@@H]1O | -3 | 0.38 |
| CN1CCCC[C@@H]1CNS(=O)(=O)N1CCCC1 | 18 | -2.33 |
| O=C(CC1CCCCC1)N1CCN(C(=O)[C@@H]2CCCc3cccnc32)CC1 | 3 | -0.3 |
| COc1ccc(C(CN2CCN(C)CC2)NC2CC3CCC2C3)cc1 (stereo not drawn) | 2 | -0.3 |
| Cc1cccc(NC(=O)N2CCN(C(=O)c3nsc4ccccc34)CC2)c1 | -2 | 0.44 |
| C[C@H]1COCCN1c1ccc(NC(=O)c2ncoc2-c2ccccc2Cl)cc1 | -2 | 0.28 |
| O=C(NC1CC1)c1ccccc1C(=O)c1ccc(F)cc1 | -8 | 1.02 |
| COc1ccc2c(c1)C(C(=O)N1CCCCC1C(=O)O)CCC2 (stereo not drawn) | -4 | 0.53 |
